This is one part of the list. Many values rest on one well or one pass, so single values are uncertain.
Columns and labels:
Assay in all cases: cell count relative to DMSO control; melanoma cells; higher = more viable cells
Details in all cases: library dose: low library concentration; 72 h
WM115 = test system: WM115
WM1716 = test system: WM1716
WM1745 = test system: WM1745
WM3526 = test system: WM3526
WM3619 = test system: WM3619
WM451Lu = test system: WM451Lu
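Also: cell number obtained by counting DAPI-stained nuclei in high-throughput microscope images with image analysis software, screen run in 1,536-well plates.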

Row | SMILES | cell count (WM115) [%] | cell count (WM1716) [%] | cell count (WM1745) [%] | cell count (WM3526) [%] | cell count (WM3619) [%] | cell count (WM451Lu) [%]
1 | C[C@]12O[C@H](C[C@]1(O)CO)n1c3ccccc3c3c4c(c5c6ccccc6n2c5c31)CNC4=O [Lestaurtinib] + O=S(=O)(c1ccccc1)N(CC(F)(F)F)c1ccc(C(O)(C(F)(F)F)C(F)(F)F)cc1 [T0901317] (first compound 0.004 µM, partner dose 1.4 µM) | 101 | 102 | 80.4 | 75.7 | 116 | 114
2 | C[As](C)SC[C@H](NC(=O)CC[C@H](N)C(=O)O)C(=O)NCC(=O)O [Darinaparsin] + O=C(O)C(=O)Nc1sc2c(c1C(=O)O)CCNC2 [TCS401] (first compound 0.4 µM, partner dose 1.66667 µM) | 94.3 | 101 | 94.4 | 99.3 | 84.2 | 139
3 | C[C@]12O[C@H](C[C@]1(O)CO)n1c3ccccc3c3c4c(c5c6ccccc6n2c5c31)CNC4=O [Lestaurtinib] + COc1cc2ncnc(Nc3ccc(Oc4ccccc4)cc3)c2cc1OC [SrcI1] (first compound 0.004 µM, partner dose 2 µM) | 104 | 130 | 90.4 | 93.2 | 104 | 98.8
4 | Cn1cc(C2=C(c3cn(C4CCN(Cc5ccccn5)CC4)c4ccccc34)C(=O)NC2=O)c2ccccc21 [Enzastaurin] + COc1ccc(C2=N[C@@H](c3ccc(Cl)cc3)[C@@H](c3ccc(Cl)cc3)N2C(=O)N2CCNC(=O)C2)c(OC(C)C)c1 [Nutlin-3] (first compound 0.8 µM, partner dose 0.1 µM) | 108 | 118 | 79 | 110 | 109 | 113

Reference: the supplement of paper PMC4604168 (melanoma cell lines)
